Measurements published in PubChem BioAssay AID463173 (ICCB-Longwood Screening Facility, Harvard Medical School, 2010).
Out of some 52,000 compounds screened, about 4,300 (8.3%) were called active. Rule as the data show it: active = survival mostly below about 52% (no sharp cut-off); inactive = mostly above about 56%. This is one part of the list.

Test system: DeltatarO mutant
Assay: growth inhibition of S. aureus wild type versus tarO mutant, primary screen, teichoic acid synthesis inhibitors, RN4220, OD600 (AID 463173)
Conditions: OD600, 18 h, stronger effect = lower value, screened at 18.75 µg/mL (by protocol)

SMILES | survival
CCc1cccc(NC(=O)Cn2cc(C(=O)c3ccncc3)c(=O)c3cc(C)c(C)cc32)c1 | inactive: 102%
C=CCN1C(=O)C(C)(C)N(C(C)=O)c2ccccc21 | inactive: 113%
O=C(NCc1ccccc1Cl)c1ccc(CSCc2cccc(F)c2)o1 | active: 17%
Cc1ccc(NC(c2nnc(-c3ccccc3)o2)c2ccccc2F)c([N+](=O)[O-])c1 (stereo not drawn) | inactive: 91%
CC(C)(C)NC(=O)C1C2CCCCC21 (stereo not drawn) | inactive: 72%
CCn1c(-c2ccc(C(C)(C)C)cc2)n[nH]c1=S | inactive: 86%
Cc1ccc(-n2nnnc2CNC(=O)c2ccccc2F)cc1C | inactive: 107%
Cc1nc(-c2ccccc2)sc1CCNC(=O)C(=O)Nc1ccc2c(c1)OCCO2 | inactive: 67%
Cc1ccc(CNC(=O)CCCN2C(=O)c3cccnc3Oc3ccc(Cl)cc32)cc1 | inactive: 99%
O=C(Nc1nnc(S(=O)(=O)N2CCCCCC2)s1)c1ccccc1Cl | active: 38%
CC(C(=O)N1CCCC1)N1CCN(c2ccc(F)cc2)CC1 (stereo not drawn) | inactive: 87%
COc1cc(OC)c(NC(=O)N2CCc3c(sc4c3CCCC4)C2c2ccccc2)cc1Cl (stereo not drawn) | inactive: 95%
Cc1cccc(NC(=O)C(Cc2ccccc2)n2cccc2)c1C (stereo not drawn) | inactive: 75%
Nc1nc2ccc(C(=O)O)cc2s1 | inactive: 79%
CCOc1ccc(NC(=O)c2cc3c(s2)-c2ccccc2OC3)cc1 | inactive: 95%
OC(C#CCN1CCCC1)(c1ccccc1)C1CCCC1 (stereo not drawn) | inactive: 73%
CC(C)CC(=O)NCC1(N(C)C)CCCCC1 | inactive: 84%
CCCc1ccc(OCC(=O)Nc2sc3c(c2C(=O)OC)CCCCC3)cc1 | active: 38%
CCCCOc1ccccc1C(=O)Nc1nonc1-c1ccccc1 | inactive: 96%
Cc1cccc(N(C)c2nc3ccc(C)cc3n3cnnc23)c1 | inactive: 62%
COc1cc([N+](=O)[O-])ccc1NC(=O)N1CCN(c2cc(-c3noc(C)n3)ccc2C)CC1 | inactive: 94%
COc1ccc(NC(=O)C(C)n2nnc3sc(-c4ccccc4)cc3c2=O)cc1Cl (stereo not drawn) | inactive: 77%

SMILES | survival
CCOc1ccc(CCNC(=O)c2cc(=O)[nH]c3ccc(S(=O)(=O)N4CCCCC4)cc23)cc1OCC | inactive: 83%
CCOc1ccccc1CNC(=O)C1CCN(S(=O)(=O)c2c(C)noc2/C=C/c2ccc(C)cc2)CC1 | inactive: 98%
COc1cccc(NC(=O)C(=O)NCCc2csc(-c3ccc(C(F)(F)F)cc3)n2)c1 | inactive: 94%
Cc1cccc(-c2nc(CSCC(=O)N3CCN(c4ccccc4)CC3)c(C)o2)c1 | active: 17%
COc1ccccc1N1CCN(c2ccc(-c3nc(-c4ccccc4C)no3)cc2[N+](=O)[O-])CC1 | inactive: 80%
COc1ccccc1Cc1nc2ccccc2nc1SCC(=O)N1CCc2ccccc21 | inactive: 58%
CCOC(=O)c1ccc(NC(=O)CSc2nccn2-c2ccc(OCC)cc2)cc1 | inactive: 70%
CCC(C)NC(=O)C1CCN(C(=O)c2ccc(-n3ccc4ccccc43)s2)CC1 (stereo not drawn) | inactive: 81%
COc1ccccc1CCNC(=O)Cc1c(C)c2c(cc(C)c3c(C)c(C)oc32)oc1=O | inactive: 89%
FC(F)(F)c1cccc(-c2nnn3c2nc(NC2CCCCC2)c2ccccc23)c1 | active: 13%
Cc1cccc(N2CCN(C(=O)Cn3cnc4sc(C)c(S(=O)(=O)N5CCN(c6ncccn6)CC5)c4c3=O)CC2C)c1 (stereo not drawn) | active: 67%
CCOc1ccc(S(=O)(=O)c2c[nH]c3ccccc3c2=O)cc1 | inactive: 85%
COc1ccc(CCNC(=O)C2CCN(c3ncnc4c3nc3n4CCCCC3)CC2)c(OC)c1 | inactive: 82%
Cc1ccccc1C(=O)Nc1ccc2nc(Nc3cccc(C(F)(F)F)c3)cc(C)c2c1 | inactive: 63%
CC1CCCN(Cc2nc3c(c(=O)n(C)c(=O)n3C)n2Cc2ccc(Cl)cc2Cl)C1 (stereo not drawn) | inactive: 94%
NS(=O)(=O)c1ccc(CCNC(=O)c2ccc3nc(Cc4ccccc4)oc3c2)cc1 | inactive: 92%
CC(C)(C)C1CCc2c(sc(NC(=O)CCC(=O)O)c2C(=O)Nc2ccccc2C(F)(F)F)C1 (stereo not drawn) | active: -6%
CCCc1cc(=O)oc2cc(C)c3c(-c4cccc(OC)c4)coc3c12 | inactive: 67%
CCOC(=O)c1cccc(NC(=O)N2CC(CC)Sc3ccccc32)c1 (stereo not drawn) | inactive: 82%
COc1cccc(-c2nc(SCC(=O)NCC3CCCO3)c(-c3ccc(F)cc3)[nH]2)c1 (stereo not drawn) | inactive: 62%
Cc1ccccc1OCC(=O)Nc1ccc(OCc2cc(=O)n3ccsc3n2)cc1 | inactive: 94%
CCOC(=O)c1cccc(NC(=O)N2CCC(CN3CCc4ccccc4C3)CC2)c1 | inactive: 72%

SMILES | survival
FC(F)(F)c1cccc(N2CCN(Cc3nnc(-c4ccc5c(c4)OCO5)o3)CC2)c1 | inactive: 54%
O=C(Cc1ccc(F)cc1)NCc1nc2cccnc2n1Cc1ccc(F)cc1 | inactive: 94%
O=C(Nc1cccc(C(=O)N2CCN(c3ccccc3F)CC2)c1)c1nsc2ccccc12 | inactive: 70%
COc1ccccc1Nc1c2c(nc3ccc(NC(=O)c4cccc(OC)c4OC)cc13)CCCC2 | active: 46%
COC(=O)c1cc2sccc2n1Cc1nc(-c2cccc(Br)c2)oc1C | inactive: 70%
O=C(Nc1ccc(C(F)(F)F)cc1)C1CCCN(S(=O)(=O)c2cccc3cccnc23)C1 (stereo not drawn) | inactive: 77%
COc1ccc(CCNC(=O)c2cnc3sc(N4CCC(C)CC4)nn3c2=O)cc1OC | inactive: 75%
CCC1CCCCN1C(=O)CSc1n[nH]c(-c2ccccc2Cl)n1 (stereo not drawn) | inactive: 102%
CCN(c1ccc(OC)cc1)S(=O)(=O)c1nnc(NC(=O)c2ccccc2C)s1 | active: 37%
NC(=O)C1CCN(Cc2nc3ccccc3c(=O)[nH]2)CC1 | inactive: 71%
COc1cccc(CNC(=O)c2ccc(-c3nc(CS(=O)(=O)c4ccccc4)c(C)o3)cc2)c1 | inactive: 72%
CN(C)CCNC(=O)CN1C(=O)CCn2nc(-c3cn(C)c4ccccc34)cc21 | inactive: 96%
CCc1ccc(NC(=O)Cn2ncc3c(C)n(Cc4cccc(Cl)c4)c(C)c3c2=O)cc1 | inactive: 89%
Cc1cc(C(F)(F)F)nc(SCC(=O)Nc2c(C)n(C)n(-c3ccccc3)c2=O)n1 | inactive: 118%
CCc1ccccc1Nc1cc(C(=O)NC2CCC(C)CC2)c2ccccc2n1 (stereo not drawn) | inactive: 70%
COc1ccc(CNC(=O)c2cc(-c3ccc(C)c(C)c3)n[nH]2)cc1 | inactive: 94%
CCc1c(C)sc(NC(=O)C2c3ccccc3Oc3ccccc32)c1C(=O)OC(C)C | active: 41%
CCOC(=O)C(=O)Nc1c(C(=O)Nc2cccc(F)c2)oc2ccccc12 | inactive: 97%
COc1ccccc1N1CCN(c2nc3c(S(=O)(=O)c4ccc(C)c(C)c4)nnn3c3ccc(Cl)cc23)CC1 | inactive: 81%
Cc1cccc(-n2ccnc2SCC(=O)Nc2nc3ccccc3s2)c1 | inactive: 93%
Cc1ccccc1NC(=O)C(NC1CCCCC1)C(C)C (stereo not drawn) | inactive: 79%
CCN(CCCNC(=O)c1nn(-c2ccc(OC)c(Cl)c2)c(=O)c2c1c1ccccc1n2C)c1cccc(C)c1 | inactive: 94%

SMILES | survival
CCOC(=O)c1ccc(NS(=O)(=O)c2cc(Br)cc3c2N(C(C)=O)C(C)C3)cc1 (stereo not drawn) | inactive: 55%
Cc1ccc(Cn2c(CNS(=O)(=O)c3ccc(Cl)s3)nc3cccnc32)cc1 | inactive: 124%
Cc1cccc(-c2nc(SCC(=O)NCc3ccco3)c3c(=O)n(C)c(=O)n(C)c3n2)c1 | inactive: 74%
Cc1cc2[nH]c(=O)c(=O)[nH]c2cc1S(=O)(=O)N1CCN(c2cccc(C)c2C)CC1 | inactive: 94%
Cc1ccc(-c2nnc3ccccc3c2C(=O)Nc2cccc(Cl)c2)cc1 | inactive: 107%
Cn1c(=O)c(=O)n(C)c2cc(N3CCOCC3)c(NS(=O)(=O)c3ccc(F)c(Cl)c3)cc21 | inactive: 67%
COc1ccc(NC(=O)c2cc3cc(C)ccc3n2C)cc1 | inactive: 60%
N#C/C(C(=O)c1ccccc1)=C1/Nc2ccccc2C1=O | inactive: 82%
CCOC(=O)c1cccc(NC(=O)C2CCCN(c3nnc(C)c4c(C)n(-c5ccccc5)nc34)C2)c1 (stereo not drawn) | inactive: 94%
O=C(Nc1cc(Cl)cc(Cl)c1)c1cc(S(=O)(=O)N2CCc3ccccc3C2)ccc1F | inactive: 94%
COc1ccc(C(=O)Nc2c(C(=O)c3ccccc3)oc3ccccc23)cc1 | inactive: 72%
COc1ccc(OC)c(C2C(C(=O)Nc3ccccc3OC)=C(C)Nc3c(C(=O)Nc4ccc(F)cc4)cnn32)c1 (stereo not drawn) | inactive: 126%
COc1ccc(C(=O)Nc2nnc(S(=O)(=O)N(CC(C)C)c3ccccc3)s2)cc1 | inactive: 51%
Cc1ccc(Cn2c(C(=O)O)c(CNCc3cccs3)c3ccc(C)cc32)cc1 | active: 48%
COc1ccc(NC(=O)c2ccc3c(c2)nnn3C2CCCC2)cc1Cl | inactive: 88%
Cc1ccc(Cl)cc1NC(=O)c1ccc2snnc2c1 | inactive: 127%
COc1cc(NC(=O)NCCn2nnc3cc(S(=O)(=O)N(C)C)ccc32)cc(OC)c1 | inactive: 90%
O=C(O)CCOc1ccc2c(c1)OCCO2 | inactive: 82%
CC(C)(C)OC(=O)N1CCC(c2c(C(=O)NCc3ccc4c(c3)OCO4)cnn2-c2ccccc2Cl)CC1 | inactive: 60%
Cc1ccc2c(=O)c(C(=O)c3ccc(F)cc3)cn(CC(=O)NCc3ccccc3Cl)c2n1 | inactive: 90%
Cc1ccc(-c2nn(CC(=O)NC3CCCCC3)c3c2cnc2ccccc23)cc1 | inactive: 64%
Cc1ccc(Cl)cc1N1CCN(C(=O)c2cccn2-c2nnc(N3CCCC3)s2)CC1 | inactive: 101%
